# The source gives no read counts; variants with many changes may rest on few reads.
# B1: LINE1-mini (parent)
# chain: GGCAGAGCUCAACACAGCGUGGCAAAGUGGCUGUGGCUAGACUGCC
# Variants of: B1
# Test: self-cleavage, relative activity (ratio to wild type); higher = more cleavage; in vitro, sequencing; the parent is a self-cleaving ribozyme
row,Variant,self-cleavage
1,A6G G21A C37G U43C,0.02
2,A11G C23G A41G,0
3,C8G A39G C46A,0.03
4,A6C U20G A26C,0.62
5,U28A G30U G35A G36U A39G,0.04
6,G5A C10A C15U G27U G35A G44A,0.02
7,G1A U9C G27A,0.08
8,C8A G22C C23G C31U A41U,0.16
9,G21A C23A G36U A39G,0
10,C3A A16U G21A G22A A24U G33U,0.56
11,G7U G33U A41C,0.28
12,C10A U20G G30C G44U,0.04
13,C10A G21U G27A,0.06
14,A24U G35U C37G,0.04
15,A26U G27U G29U G44A,0.52
16,G2U C3A G5A C18U U20C,0.46
17,C3U A12C C13A C42A,0.11
18,C8A G30A G40A,1.19
19,A4C A6U G29C U32A C42U,0.02
20,C10U C15A U20G G27A A41G,0.02
21,G2U C13A G19U U34G,0.04
22,C3G G5C G7C A24C C37U A41C C42G,0
23,G7A U9G A11C G33C,0.03
24,A25U G30A U38G,0.03

row,Variant,self-cleavage
1,U32G U34A U43G C46A,0
2,A4G C10A C31U,0.02
3,C23A U28C C31U C37U G44C,0.02
4,C13A G27C C31U C42U,0.04
5,U9A U20G A26C G29A U34A C46A,0.09
6,G7A G29U G36U A39U,0.24
7,C3G G27U C37A U38A C45G,0.02
8,G7A C8A C10A G33A C37G C45U,0.02
9,G2A A11U G19C,0.05
10,C10A A24U A26G,0.34
11,G1U G33C G35U,0.09
12,G1U C3G A16C C18A A24U G30A,0.09
13,A4U C8U C15A,0.09
14,G1U C31A C45U C46A,0.03
15,C3G G7U G36A,0.84
16,G2C C10A U38A,0.01
17,G5A U9A G27C,0.23
18,A4U G22C A24C,0.06
19,A11C C23U A39C C42U,0.02
20,G33A U38G G40A U43C,0.02
21,A26G G33U A39C C45G,0.03
22,A4G G22U G29A G36C G44C,0.17
23,G2C C23U U28G,0.08
24,G2C C13U A16G,0.14

row,Variant,self-cleavage
1,A4G A24G A39G,0.07
2,A26C G30A U32C,0.18
3,C13A A14C A25U C45U,0.08
4,C13A A24G U34G,0.02
5,C13A G35C U43G,0.08
6,A4U G5C G7C A24G,0.4
7,G21U G22U U32A,0.08
8,U9G A12G G22C C37A,0.13
9,C3U G5C A16C A39G C42G,0.03
10,C15A A16U G36C C37A,0.09
11,G5C C13G A25U C45U,0.17
12,G1C G19C A24U,0.03
13,A16G G17U G21U U38A,0.24
14,G2U G35U C45U,0.02
15,A11C C15A A26C,0.02
16,A11C G33C C45G,0
17,A4U G30A C46G,0.05
18,A39G G40A A41G,0.01
19,G7U A16G C37A,0.02
20,G2C C3U C18A U20A C31G C37U,0.03
21,C13U G29U C31A U38C,0.03
22,G2C A4U C8A U28G G35U,0.13
23,C8A G19U G35U,0.17
24,C18U G19A C31U C37A C42G,0

row,Variant,self-cleavage
1,A12U C37U C45A,0.01
2,A6U C31A A41U,0.05
3,C15U U28A G40A C42U C45G C46U,0.05
4,G2U G17C A39G C42G,0
5,A26C G30A U43A,0.12
6,G21C G27C C31G,0.05
7,G5C G29C C42U G44U,0.06
8,U9G A11C G29A C31U C37U C42A,0
9,G22C C37U G44A,0.07
10,C8A A25C C42A,0.09
11,A14C C23A G29A,0.19
12,G2C C13A G35A G40U,0.02
13,G1U A11U G22A G33A C37A,0.01
14,A6C A11G G29U,0.03
15,U20C A24U G33U,0.05
16,C8G G22C C23U G30U,0.07
17,G1U C37A C42A,0.06
18,G1A A24U G30A U34A A41C,0.08
19,G5U C10A A16G U32G C37U,0
20,G2U U32G G36C,0.03
21,A11C C15A A24C A25G U38C,0.02
22,G1C G5U G22U G40C U43G,0
23,G19A C23U C42A,0.08
24,G29U G30A U32A,0.26

row,Variant,self-cleavage
1,C3A A11G A25G G33A U34A U38C,0
2,G19U U34G G40U,0.02
3,G1C A6G G33A,0.01
4,G44U C45G C46U,0.04
5,A6C C13U A26G U43C C45G,0.09
6,G2A G19C G22A A26G A39G,0.06
7,G27U G29U G40C,0.21
8,C13A A24U G33U,0.04
9,G2A U9A C13U G22A,0.24
10,C13U U20A G36A,0.02
11,C15U G17U G19U C23G U38C,0.01
12,C15U C18G G22A U38G,0.05
13,G7U U20C C31U G40A,0.03
14,C18U U28G C31G,0.07
15,G2C A6C C18A U28C,0.02
16,A4G C31G C37U U38C,0.05
17,G29U U34G C46A,0.04
18,C8A U9A C10A C42U,0.02
19,G7A U34A G36C U38G C42A,0.12
20,C23A C31U C37U U43C,0.11
21,G2C C8A U9A C37U A39G C45A,0.05
22,A6C A16U C18A U34C C37G,0.06
23,A6U G17C G33U,0.02
24,A14G U34A A39U G44A,0.06

row,Variant,self-cleavage
1,C3A A6C G7U A16G U28A G33U U38G G40C G44C,0.01
2,C10G G21U C42G,0.02
3,A11U U20G G33C G40A,0
4,G5A G21U U28A,0.03
5,U9A C13U A16G G36A C37A A41U,0.01
6,G5U G17A G29C U34A G40A,0.02
7,A24G G27C G30C G36A,0.06
8,G21A G40U A41G C45U,0.02
9,C23G A24G A39U,0.1
10,G2A U20A G22C C23A,0.58
11,G5C A14G U28G,0.02
12,C15U C18A C23A A39G,0.06
13,G1U A4C C13A,0.06
14,C8A G22A C37U C46G,0.1
15,U9G C37U C46A,0.08
16,C3G C18A C46U,0.08
17,A4U C15U C18A C45A,0.03
18,C3G C8G G22A C45A,0.01
19,G1U G5U C8U,0.23
20,G1A G5A U43C,0.15
21,A12U U20C C37A A41C C45G,0
22,C15G G19A G33A G36C,0.03
23,A4G C18U C31A C37A,0.06
24,G2U G30C U32C C46U,0.02

row,Variant,self-cleavage
1,C8A G35C G44A,0.19
2,G22U A41G U43A,0.02
3,C18U U20G C42A,0.03
4,C3A G33U U43C C45A,0.29
5,C10G G22C A26G A39G,0.01
6,G17U G19C C37U,0.07
7,C15A G27C G40C,0.24
8,C13A C23U A25C G30U G36U,0.11
9,C8U A26U U32C G35U,0.22
10,U20C C23A U32A,0.1
11,A6U G19C C45U,1.88
12,G1A U38A G40U,0.07
13,G33A U43A C46A,0.02
14,C15A A39C C46G,0.03
15,A4C A24U G29C C31A,0.08
16,G21C C31U G44U,0.03
17,A6U C8U U28G,0.08
18,A12U U20C A26C G29C,0.09
19,C18G A24C G40C,0.01
20,C8G C18A C37A C42G,0.02
21,C3A C10A G30U G44U,1.18
22,G7U C13U C18G A26G G33U G36A A41G,0.05
23,G1A G2U C31A A39U,0.04
